{"source": "PubChem BioAssay AID1454", "about": "(National Center for Advancing Translational Sciences (NCATS), 2008)", "note": "Screen size: about 130,000 compounds; about 550 (0.42%) were called active. The shares of active, inactive and inconclusive entries below differ from those in the screen. Calls follow the shape of the dose curve; as a rule, active = well fitted inhibition curve with a large enough effect; inconclusive = small, poorly fitted or top-dose-only effect, or effect the other way; inactive = flat fitted curve, though single readings scatter. Potencies of inconclusive entries are left out as doubtful fits. Potency is read from the fitted curve at half-maximal effect; tags tell the direction and shape of the fitted curve."}
{"test": "qHTS Assay for Inhibitors of the ERK Signaling Pathway using a Homogeneous Screening Assay; Stimulation with EGF; also: nearly all actives have a fitted effect of over 55% in size;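 as to activity change, negative = inhibition: plate controls were stimulated vehicle wells for no effect and unstimulated vehicle basal for full effect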", "details": "HEK293-V1b, EGF-stimulated phospho-ERK AlphaScreen; activity change, negative = inhibition: at the top concentration", "procedure,_shortened": "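Compounds are titrated over HEK293-V1b cells kept overnight in 1% FBS. After 30 min at 37C, EGF (25 nM final) triggers ERK phosphorylation for 5 min, measured by AlphaScreen in lysates.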"}
{"smiles": "CCCCOC(=O)CCCN1C(=O)/C(=C2\\SC(=S)N(CCCC(=O)OCCCC)C2=O)SC1=S", "Potency": "inconclusive [inhibitor, full curve, poor fit]"}
{"smiles": "Cc1ccccc1CNc1ccc(C(CC(N)=O)NC(=O)c2ccccc2)cc1[N+](=O)[O-]", "note": "(stereo unspecified)", "Potency": "inconclusive [inhibitor, partial curve, poor fit]"}
{"smiles": "OC(CN=c1sc2ccccc2n1CC(O)COc1ccccc1)COc1ccccc1", "note": "(stereo unspecified)", "Potency": "inconclusive [inhibitor, single point]"}
{"smiles": "Cc1ccc(N(CC(=O)N2CCOCC2)S(C)(=O)=O)cc1", "Potency": "inconclusive [activator, full curve, poor fit]"}
{"smiles": "CC(C)c1cccc2cc3c(nc12)-c1cccc(=O)n1C3", "activity change, negative = inhibition": "inactive: 3.29%"}
{"smiles": "N#Cc1ccc(CS(=O)(=O)c2nnnn2C2CCCCC2)cc1", "activity change, negative = inhibition": "inactive: -15.7%"}
{"smiles": "CC(=O)Nc1ccc(NC(=O)C(C)OC(=O)c2ccccc2C(=O)c2ccc(Cl)c([N+](=O)[O-])c2)cc1", "note": "(stereo unspecified)", "Potency": "inconclusive [inhibitor, single point]"}
{"smiles": "CN1/C(=C/C(=S)NC(=O)C2(C)CC2(Cl)Cl)C(C)(C)c2ccccc21", "note": "(stereo unspecified)", "Potency": "inconclusive [inhibitor, partial curve, poor fit]"}
{"smiles": "COc1ccccc1C1CC(c2ccco2)=NN1c1ccccc1", "note": "(stereo unspecified)", "Potency": "inconclusive [activator, partial curve]"}
{"smiles": "O=C1C2C3C=CC(C3)C2C(=O)N1c1ccc(N2CCN(c3ccccn3)CC2)c([N+](=O)[O-])c1", "note": "(stereo unspecified)", "Potency": "inconclusive [inhibitor, partial curve]"}
{"smiles": "Cc1ccccc1-n1nc(C(=O)c2cccs2)cc(-c2nc3ccccc3[nH]2)c1=N", "Potency": "inconclusive [inhibitor, full curve]"}
{"smiles": "O=C(Nc1nc(-c2ccccc2)c(C(=O)c2ccccc2)s1)c1ccc(S(=O)(=O)N2CCCC2)cc1", "activity change, negative = inhibition": "inactive: 0.536%"}
{"smiles": "CCOC(=O)N1CCN(C(=O)c2ccc(CSc3ccc(Cl)cc3)cc2)CC1", "Potency": "inconclusive [inhibitor, single point]"}
{"smiles": "CCn1ccc(-c2ccccc2)c(C#N)c1=O", "Potency": "inconclusive [inhibitor, full curve, poor fit]"}
{"smiles": "COCc1cc(C)nc(SCC[N+](C)(C)CC(=O)c2ccccc2)c1C#N", "Potency": "inconclusive [inhibitor, single point]"}
{"smiles": "Cc1ccc(OCC(=O)N/N=C/c2c[nH]c3ccccc23)c([N+](=O)[O-])c1", "Potency": "inconclusive [inhibitor, single point]"}
{"smiles": "CCN1/C(=C\\C=C2\\C(=O)N(C)C(=S)N2C)Sc2ccccc21", "Potency": "inconclusive [inhibitor, partial curve]"}
{"smiles": "CSc1ccccc1C(=O)N1CCN(c2cccc(Cl)c2)CC1", "Potency": "inconclusive [inhibitor, partial curve]"}
{"smiles": "N#CC(=C(\\N)Sc1ccccc1N)/C(C#N)=C(/N)Sc1ccccc1N", "Potency": "active: 1.41 µM"}
{"smiles": "CN(C)c1ccnc(-c2cccc(NS(C)(=O)=O)c2)n1", "activity change, negative = inhibition": "inactive: 15.8%"}
{"smiles": "COC(=O)C1=C(C)N=c2s/c(=C3\\C(=O)Nc4ccccc43)c(=O)n2C1c1ccccc1", "note": "(stereo unspecified)", "Potency": "inconclusive [inhibitor, partial curve]"}
{"smiles": "CCCCSc1nc(C)cc(SCC(=O)N/N=C/c2ccccc2)n1", "Potency": "inconclusive [inhibitor, single point]"}
{"smiles": "CC(c1ccccn1)N(Cc1ccco1)C(=S)Nc1cccc(F)c1", "note": "(stereo unspecified)", "activity change, negative = inhibition": "inactive: -8.32%"}
{"smiles": "O=C1NC(=Nc2ccc3ccccc3c2)S/C1=C/c1ccco1", "Potency": "inconclusive [inhibitor, single point]"}
{"smiles": "CSc1cnn(Cc2ccccc2)c(=O)c1SCc1ccccc1", "Potency": "inconclusive [activator, single point]"}
{"smiles": "Cc1ccccc1N1CCN(CCCOc2ccc3c(C)cc(=O)oc3c2)CC1", "Potency": "inconclusive [inhibitor, single point]"}
{"smiles": "CN(C)c1ccc(N=Nc2ccccc2C(=O)OCC(=O)N2CCCC2)cc1", "Potency": "inconclusive [inhibitor, single point]"}
{"smiles": "CC(C)n1cnc2c(N(C)c3ccccc3)nc(N(CCN(C)C)Cc3ccccc3)nc21", "Potency": "inconclusive [inhibitor, single point]"}
{"smiles": "CCN1CCCc2cc(CN(CCN3CCOCC3)C(=S)Nc3cccc(C)c3)ccc21", "Potency": "inconclusive [inhibitor, single point]"}
{"smiles": "CCC1(CC)NC(=O)N(CC(=O)Nc2ccc(S(=O)(=O)N3CCOCC3)cc2)C1=O", "Potency": "inconclusive [activator, partial curve, poor fit]"}
{"smiles": "COc1ccc(CCNC(=S)NCc2ccc(Cl)c(Cl)c2)cc1OC", "Potency": "inconclusive [inhibitor, single point]"}
{"smiles": "COC(=O)C1(C(=O)OC)Cc2conc2[C@H]1c1ccccc1", "Potency": "inactive"}
{"smiles": "Cc1cccc(N=Nc2c(C)nn(-c3ccccc3)c2N)c1C", "Potency": "inconclusive [inhibitor, partial curve]"}
{"smiles": "O=C(NCC1CC1)[C@@H]1C[C@H]1[C@@H](NP(=O)(c1ccccc1)c1ccccc1)c1ccccc1", "Potency": "inconclusive [inhibitor, partial curve]"}
{"smiles": "CC1=CC(C)(C)Nc2ccc(Cc3ccc4c(c3)C(C)=CC(C)(C)N4)cc21", "Potency": "inconclusive [inhibitor, partial curve]"}
{"smiles": "Cc1ccc(NC(=O)COC(=O)C(NS(=O)(=O)c2ccc(Cl)cc2)C(C)O)cc1C", "note": "(stereo unspecified)", "Potency": "inconclusive [inhibitor, single point]"}
{"smiles": "Cc1ccc(/C=C2\\SC(=S)N(C3CCS(=O)(=O)C3)C2=O)o1", "note": "(stereo unspecified)", "Potency": "inconclusive [inhibitor, single point]"}
{"smiles": "CN1CCN(/N=C/c2ccc(N(c3ccccc3)c3ccccc3)cc2)CC1", "Potency": "inconclusive [inhibitor, single point]"}
{"smiles": "Oc1[nH]c2ccccc2c1N=Nc1ccccc1", "activity change, negative = inhibition": "inactive: 4.62% [at 57.5 µM]"}
{"smiles": "Cc1ccc(/C=C2\\SC(=S)N(CCCC(=O)Nc3ccc(O)cc3)C2=O)cc1", "Potency": "inconclusive [inhibitor, partial curve, poor fit]"}
{"smiles": "O=C(CN1C(=O)S/C(=C\\c2ccc(Cl)cc2)C1=O)NNC(=O)c1ccccc1O", "Potency": "inconclusive [inhibitor, partial curve]"}
{"smiles": "COc1ccc(N2CCC(CNC(=S)Nc3cc(C)ccc3C)C2)cc1", "note": "(stereo unspecified)", "Potency": "active: 14.1 µM"}
{"smiles": "COC(=O)/C=C/c1sc2nc(C)cc(C)c2c1N=CN(C)C", "Potency": "inconclusive [inhibitor, single point]"}
{"smiles": "CCN1C(=O)/C(=C2/C=Cc3ccccc3N2CC)SC1=S", "Potency": "active: 15.8 µM"}
{"smiles": "O=C1/C(=C/c2ccncc2)CCc2ccccc21", "Potency": "inconclusive [inhibitor, partial curve]"}
{"smiles": "S=C(NC1CC1)N1CCN(c2ccc(Cl)cc2)CC1", "Potency": "inconclusive [inhibitor, partial curve]"}
{"smiles": "COc1ccc(-c2csc(Nc3ccc(O)cc3)n2)cc1", "Potency": "inconclusive [inhibitor, single point]"}
{"smiles": "O=C(Nc1ccccc1F)Nc1ccc([N+](=O)[O-])cc1Cl", "Potency": "inconclusive [inhibitor, partial curve]"}
{"smiles": "CC(C)CCCC(C)C1CCC2C3CC=C4CC(=O)CC[C@@]4(C)C3CC[C@@]12C", "note": "(stereo partly specified)", "activity change, negative = inhibition": "inactive: 25.4%"}
{"smiles": "CCCCC/C=C\\C/C=C\\C/C=C\\C/C=C\\CCCCCC(=O)NCC(=O)O", "activity change, negative = inhibition": "inactive: -0.173%"}
{"smiles": "CNCc1ccccc1Sc1cc(O)ccc1O", "Potency": "inconclusive [inhibitor, single point]"}
{"smiles": "O=C(Nc1cccc(Cl)c1Cl)C1CC(=O)N(c2ccc(Br)cc2)C1", "note": "(stereo unspecified)", "Potency": "inconclusive [inhibitor, single point]"}
{"smiles": "c1ccc(CCNc2ncnc3ccccc23)cc1", "Potency": "inconclusive [inhibitor, single point]"}
{"smiles": "COc1ccc(C(C)=O)cc1COC(=O)c1cnc(Cl)c(Cl)c1", "Potency": "inconclusive [inhibitor, partial curve]"}
{"smiles": "c1ccc2c(c1)nc(-c1ccncc1)n1nnnc21", "Potency": "inconclusive [inhibitor, single point]"}
{"smiles": "NCC1O[C@@H](OC2C(N)C[C@H](N)[C@@H](O[C@H]3OC(CO)C(O)C(N)C3O)C2O)C(N)C(O)C1O", "note": "(stereo partly specified)", "activity change, negative = inhibition": "inactive: -18%"}
{"smiles": "COc1ccccc1/C=C/C(=C1/C(=O)N(c2ccccc2)N=C1C)c1ccc(C)cc1", "Potency": "inconclusive [inhibitor, full curve]"}
{"smiles": "N#Cc1cccc(NC(=O)N2CC[C@@]3(CCCN(C(=O)c4cnccn4)C3)C2)c1", "activity change, negative = inhibition": "inactive: -16.3%"}
{"smiles": "COc1ccc(N2CCN(CCC3Oc4cc([N+](=O)[O-])ccc4NC3=O)CC2)cc1", "note": "(stereo unspecified)", "Potency": "inconclusive [inhibitor, partial curve]"}
{"smiles": "C[C@]12C[C@@](C)(C=C1/C=C/c1ccc(C(F)(F)F)cc1)C(=O)C[C@H]2c1ccc(C(F)(F)F)cc1", "activity change, negative = inhibition": "inactive: 4.46%"}
{"smiles": "COc1ccc(N2C(=O)CC(Sc3nc4ccccc4s3)C2=O)cc1", "note": "(stereo unspecified)", "activity change, negative = inhibition": "inactive: -0.457%"}
{"smiles": "COc1ccc2oc(-c3ccc(NC(=O)c4ccc(N5CCOCC5)c([N+](=O)[O-])c4)cc3)nc2c1", "Potency": "inconclusive [inhibitor, partial curve]"}
{"smiles": "O=C(/C=C/c1ccc(Br)cc1)NC(=S)Nc1ccc(S(=O)(=O)Nc2nccs2)cc1", "activity change, negative = inhibition": "inactive: 0.689%"}
{"smiles": "O=C(NCC(O)COc1ccc([N+](=O)[O-])cc1)Nc1ccccc1", "note": "(stereo unspecified)", "Potency": "inconclusive [inhibitor, partial curve]"}
{"smiles": "N#Cc1cc2c(nc1SCc1ccccc1)CCC2", "activity change, negative = inhibition": "inactive: 2.42%"}
{"smiles": "CC1Cc2ccccc2N1C(=O)c1ccc(N2CCCC2)c([N+](=O)[O-])c1", "note": "(stereo unspecified)", "Potency": "inconclusive [inhibitor, partial curve]"}
